Experimental data taken from patent US7541342B2, “Use of PKC-activating compounds as cardioprotectants and as apoptosis-inducing anti-tumor agents” (University of Tennessee Research Foundation, priority 2005, dated 2009).
Where a name gives a salt, the structure may show the parent alone. Where a SMILES comes first, the peptide text is derived from it. The star is where a group is joined. Cbz = O=C(OCc1ccccc1)*; CH2F = FC*

Assays:
[1] = system: neonatal rat ventricular myocytes (NRVM); assay: ATP content (luciferin/luciferase) in anti-erbB-2 antibody treated NRVM; details: 200 nM drug 1 hr prior to anti-erbB-2 antibody
[2] = system: K562 cells overexpressing P-glycoprotein; assay: IC50/IC90 cytotoxicity in drug-sensitive K562 (S) versus P-glycoprotein overexpressing K562 (R)
[3] = system: K562 cells; assay: Cytotoxicity analysis in K562 cells; details: 10 μM, 72 hrs of exposure
[4] = system: cytochrome c release in 32D.3 cells; assay: Immunoblot analysis of cytochrome c release from mitochondria; type: cell-based, murine
[5] = system: 32D.3 cells; assay: Mitochondrial membrane depolarization ([…] staining); type: cell-based, murine; details: combined with 5 μM AD 198; rottlerin 10 μM, Z-VAD-FMK 200 μM, CsA 5 μM
[6] = Chronic anthracycline cardiotoxicity model (Bertazzoli); details: 10 i.v. injections
[7] = cited from earlier work
[8] = system: 32D.3 cells; assay: Cell viability determination by trypan blue staining
[9] = system: PLS3; assay: PLS3 threonine phosphorylation (Ni bead pulldown, Western blot); type: cell-based; details: with 5 μM AD 198 for 2 hr
Experimental: (§1) Cell Culture, Transfection, and Treatment: HeLa cells were cultured in Dulbecco's modified Eagle's medium (DMEM) containing 10% fetal bovine serum, 2 mM […] and penicillin (100 units/mL)-streptomycin (100 μg/mL) at 37° C. in a humidified 5% CO2 atmosphere. HeLa cells at 90% confluence were transfected with different mammalian expression vectors using LIPOFECTAMIN™ 2000 transfection reagent according to the manufacturer's protocol (Invitrogen Corporation, Carlsbad, Calif., United States of America). […] For down-regulation of PLS3, HeLa cells at 50% confluence were transfected with siRNA against PLS3 or a scrambled control. […] The whole cell lysate was extracted for analysis with Western blotting.
Purification of His-tagged Proteins from Transfected HeLa Cells: After washing with ice-cold PBS, HeLa cells transfected with the pCMV-PLS3 or PLS3(T21A) vector were incubated in lysis buffer (50 mM NaH2PO4, 500 mM NaCl, 20 mM imidazole, 1% Triton X-100, 20 mM 2-mercaptoethanol, pH 8.0) for 5 min and sonicated briefly on ice. The lysates were centrifuged at 10,000×g for 10 min at 4° C. […] Protein concentrations of the supernatants were measured with the Bio-Rad protein assay (Bio-Rad Laboratories, Hercules, Calif., United States of America) and each sample was adjusted to the same concentration. […] After washing, the beads were resuspended in SDS buffer and analyzed by Western blotting. […]

[10] = system: HeLa cells; assay: Apoptosis by propidium iodide staining and flow cytometry; type: cell-based; details: 50 μM Z-VAD-FMK or 5 μM CsA, then AD 198 16 hr
Experimental: as §1
Analysis of Apoptotic Cells by Flow Cytometry and Determination of the Transmembrane Potential in Mitochondria: Cell death was quantified by TUNEL (Terminal Deoxynucleotidyltransferase-mediated dUTP-biotin Nick End Labeling; Roche Diagnostics, Basel, Switzerland) or propidium iodide (PI) staining, followed by flow cytometry. For TUNEL staining, HeLa cells were fixed with 1% paraformaldehyde for 15 min on ice and 70% ethanol for 1 h at −20° C. […] The fluorescence intensity was analyzed by FACScan (BD Biosciences, San Jose, Calif., United States of America). […] The DNA content per nucleus was evaluated by FACScan. […] The cells were collected and washed with PBS and analyzed by FACScan.

[11] = system: PKC-δ; assay: PKC translocation immunoblot in primary cardiomyocytes; type: cell-based, rat; details: 0.1 μM, within 5 min
From the text: FIG. 22 is an immunoblot analysis of PKC translocation in drug-treated rat cardiomyocytes. […] Total membrane fractions were isolated by differential centrifugation in the absence of non-ionic detergent, subjected to SDS-PAGE and prepared for immunoblot analysis using antibodies against the PKC isoforms.

[12] = system: Raf-1/Mek/MAPK(erk1,2) pathway; assay: MAP kinase phosphorylation immunoblot in K562 cells; details: PD98059 20 μM

COc1cccc2c1C(=O)c1c(O)c3c(c(O)c1C2=O)C[C@@](O)(C(=O)CO)CC3O[C@H]1C[C@H](NCc2ccccc2)[C@H](O)[C@H](C)O1 (some centres unmarked) [AD 288, N-Benzyladriamycin]
ATP depletion by anti-erbB-2 antibody after drug pretreatment [1]: increased ATP depletion | resistance of P-glycoprotein expressing K562 cells [2]: highly resistant

Cc1ccc(NC(=O)c2ccc(CN3CCN(C)CC3)cc2)cc1Nc1nccc(-c2cccnc2)n1 [imatinib, imatinib mesylate]
cell kill [3]: approximately 70%

CC(=O)c1c(O)c(C)c(O)c(Cc2c(O)c3c(c(C(=O)/C=C/c4ccccc4)c2O)OC(C)(C)C=C3)c1O [rottlerin, reference compound]
effect on AD 198-induced cytochrome c release ([4]; combined with 5 μM AD 198, rottlerin 10 μM, cyclosporine A 5 μM): inhibits cytochrome c release | effect on AD 198-induced Δψm (mitochondrial depolarization) [5]: preserves punctate fluorescence

COc1cccc2c1C(=O)c1c(O)c3c(c(O)c1C2=O)C[C@@](O)(C(=O)CO)C[C@@H]3O[C@H]1C[C@H](N)[C@H](O)[C@H](C)O1 [DOX, Doxorubicin]
ATP depletion by anti-erbB-2 antibody after drug pretreatment [1]: increased ATP depletion | resistance of P-glycoprotein expressing K562 cells [2]: highly resistant | Affected Hearts (%) ([6]; dose 1.2 mg/kg): 90% | MTS ([6]; dose 1.2 mg/kg): 0.7 | Affected Hearts (%) ([6]; dose 2.3 mg/kg): 100% | MTS ([6]; dose 2.3 mg/kg): 1.9 | Affected Hearts (%) ([6]; dose 4.6 mg/kg): 100% | MTS ([6]; dose 4.6 mg/kg): 6.1 | mortality after two years without transplantation ([7]; after DOX-induced congestive heart failure): 50% | frequency of heart failure ([7]; human, in vivo): 26%

CNc1ccc2oc(C[C@H]3O[C@@]4(CC[C@H]3C)O[C@H]([C@H](C)C(=O)c3ccc[nH]3)[C@H](C)C[C@H]4C)nc2c1C(=O)O [A23187, reference compound]
cell kill beyond that observed with BAPTA/EGTA alone ([8]; with BAPTA-AM/EGTA treatment, after 6 hr): less than 15% | cell kill ([8]; within 1 hr of treatment): > 90% | effect of BAPTA/EGTA treatment on drug-induced cytochrome c release ([4]; 5 μM AD 198, 5 μM AD 445, 10 μM A23187): blocked

COC(=O)CC(NC(=O)C(C)NC(=O)C(NC(=O)OCc1ccccc1)C(C)C)C(=O)CF (stereo not drawn) [Z-VAD-FMK, reference compound] (Cbz-Val-Ala-Asp(OMe)-CH2F; configuration not given here)
effect on AD 198-induced PLS3 phosphorylation [9]: not affected | effect on AD 198-induced Δψm (mitochondrial depolarization) [5]: fails to inhibit | effect on AD 198-induced apoptosis [10]: did suppress

CCCCCCCCCCCCCC(=O)O[C@@H]1[C@@H](C)[C@@]2(O)[C@@H](C=C(CO)C[C@]3(O)C(=O)C(C)=C[C@@H]23)[C@@H]2C(C)(C)[C@]12OC(C)=O [PMA, reference compound]
translocation of PKC-δ [11]: Marginal translocation

COc1cccc(-c2cc(=O)c3ccccc3o2)c1N [PD98059, reference compound]
effect on AD 198-induced phosphorylation of MAPK [12]: inhibited
